Source: a compilation of properties of binary mixtures (doi:10.1016/j.jct.2014.10.022)
Some of these densities may be calculated back from excess volumes.

Experiment: xn = mol fraction of the nth substance listed
Conditions: 100 kPa

Q: For `CCCC[n+]1ccc(C)cc1.O=S(=O)([N-]S(=O)(=O)C(F)(F)F)C(F)(F)F` + CCOS(=O)(=O)[O-].CC[n+]1ccn(C)c1, which mass density (293.15 K, x2 = 0.0475) is on record?
A: 1411.2 kg/m3

Q: And the mass density (293.15 K, x2 = 0.226)?
A: 1389.2 kg/m3

Q: What about the mass density (293.15 K, x2 = 0.4479) of the same compound?
A: 1356.5 kg/m3

Q: And the mass density (293.15 K, x2 = 0.6663)?
A: 1317.4 kg/m3

Q: And the mass density (293.15 K, x2 = 0.7776)?
A: 1294.7 kg/m3

Q: And the mass density (293.15 K, x2 = 0.886)?
A: 1270.4 kg/m3

Q: And the mass density (293.15 K, x2 = 0.9487)?
A: 1255 kg/m3

Q: And the mass density (303.15 K, x2 = 0.0475)?
A: 1401.9 kg/m3

Q: And the mass density (303.15 K, x2 = 0.1177)?
A: 1393.8 kg/m3

Q: And the mass density (303.15 K, x2 = 0.226)?
A: 1380.2 kg/m3

Q: What about the mass density (303.15 K, x2 = 0.3341) of the same compound?
A: 1365.2 kg/m3

Q: What about the mass density (303.15 K, x2 = 0.4479) of the same compound?
A: 1348 kg/m3

Q: What about the mass density (303.15 K, x2 = 0.6663) of the same compound?
A: 1309.5 kg/m3

Q: What about the mass density (303.15 K, x2 = 0.886) of the same compound?
A: 1262.9 kg/m3

Q: And the mass density (303.15 K, x2 = 0.9487)?
A: 1247.9 kg/m3

Q: What about the mass density (313.15 K, x2 = 0.0475) of the same compound?
A: 1392.6 kg/m3

Q: What about the mass density (313.15 K, x2 = 0.1177) of the same compound?
A: 1384.7 kg/m3

Q: What about the mass density (313.15 K, x2 = 0.226) of the same compound?
A: 1371.3 kg/m3

Q: And the mass density (313.15 K, x2 = 0.4479)?
A: 1339.5 kg/m3

Q: And the mass density (313.15 K, x2 = 0.558)?
A: 1321.2 kg/m3

Q: And the mass density (313.15 K, x2 = 0.7776)?
A: 1279.5 kg/m3

Q: What about the mass density (313.15 K, x2 = 0.886) of the same compound?
A: 1255.8 kg/m3

Q: And the mass density (323.15 K, x2 = 0.0475)?
A: 1383.5 kg/m3

Q: What about the mass density (323.15 K, x2 = 0.1177) of the same compound?
A: 1375.6 kg/m3

Q: And the mass density (323.15 K, x2 = 0.226)?
A: 1362.5 kg/m3

Q: And the mass density (323.15 K, x2 = 0.3341)?
A: 1347.9 kg/m3

Q: What about the mass density (323.15 K, x2 = 0.4479) of the same compound?
A: 1331.1 kg/m3

Q: What about the mass density (323.15 K, x2 = 0.558) of the same compound?
A: 1313 kg/m3

Q: And the mass density (323.15 K, x2 = 0.886)?
A: 1248.7 kg/m3

Q: And the mass density (323.15 K, x2 = 0.9487)?
A: 1234.1 kg/m3

Q: And the mass density (333.15 K, x2 = 0.0475)?
A: 1374.4 kg/m3

Q: And the mass density (333.15 K, x2 = 0.226)?
A: 1353.6 kg/m3

Q: What about the mass density (333.15 K, x2 = 0.4479) of the same compound?
A: 1322.5 kg/m3

Q: What about the mass density (333.15 K, x2 = 0.7776) of the same compound?
A: 1264.6 kg/m3

Q: What about the mass density (333.15 K, x2 = 0.886) of the same compound?
A: 1241.7 kg/m3

Q: And the mass density (333.15 K, x2 = 0.9487)?
A: 1227.2 kg/m3

Q: What about the mass density (343.15 K, x2 = 0.226) of the same compound?
A: 1344.8 kg/m3

Q: What about the mass density (343.15 K, x2 = 0.3341) of the same compound?
A: 1330.6 kg/m3

Q: And the mass density (343.15 K, x2 = 0.4479)?
A: 1313.8 kg/m3

Q: What about the mass density (343.15 K, x2 = 0.558) of the same compound?
A: 1296.2 kg/m3

Q: And the mass density (343.15 K, x2 = 0.886)?
A: 1234.5 kg/m3

Q: What about the mass density (353.15 K, x2 = 0.1177) of the same compound?
A: 1348.6 kg/m3

Q: And the mass density (353.15 K, x2 = 0.3341)?
A: 1321.8 kg/m3

Q: What about the mass density (353.15 K, x2 = 0.4479) of the same compound?
A: 1305.3 kg/m3

Q: And the mass density (353.15 K, x2 = 0.558)?
A: 1288 kg/m3

Q: What about the mass density (353.15 K, x2 = 0.6663) of the same compound?
A: 1270.2 kg/m3

Q: And the mass density (353.15 K, x2 = 0.886)?
A: 1227.5 kg/m3

Q: What about the mass density (353.15 K, x2 = 0.9487) of the same compound?
A: 1213.5 kg/m3

Q: Which mass density (293.15 K, x2 = 0.0504) does the source give for `CC[n+]1ccn(C)c1.O=S(=O)([O-])C(F)(F)C(F)F` + CCCC[n+]1ccc(C)cc1.O=S(=O)([N-]S(=O)(=O)C(F)(F)F)C(F)(F)F here?
A: 1434.3 kg/m3

Q: And the mass density (293.15 K, x2 = 0.112)?
A: 1432.6 kg/m3

Q: What about the mass density (293.15 K, x2 = 0.5529) of the same compound?
A: 1422.7 kg/m3

Q: And the mass density (293.15 K, x2 = 0.6631)?
A: 1421 kg/m3

Q: What about the mass density (293.15 K, x2 = 0.8828) of the same compound?
A: 1418 kg/m3

Q: What about the mass density (293.15 K, x2 = 0.9517) of the same compound?
A: 1417.2 kg/m3

Q: What about the mass density (303.15 K, x2 = 0.0504) of the same compound?
A: 1425.8 kg/m3

Q: What about the mass density (303.15 K, x2 = 0.112) of the same compound?
A: 1424 kg/m3

Q: What about the mass density (303.15 K, x2 = 0.2211) of the same compound?
A: 1421.1 kg/m3

Q: And the mass density (303.15 K, x2 = 0.4432)?
A: 1415.6 kg/m3

Q: What about the mass density (303.15 K, x2 = 0.5529) of the same compound?
A: 1413.7 kg/m3

Q: And the mass density (303.15 K, x2 = 0.6631)?
A: 1411.9 kg/m3

Q: What about the mass density (303.15 K, x2 = 0.774) of the same compound?
A: 1410.1 kg/m3

Q: And the mass density (303.15 K, x2 = 0.8828)?
A: 1408.8 kg/m3

Q: What about the mass density (313.15 K, x2 = 0.2211) of the same compound?
A: 1412.4 kg/m3

Q: And the mass density (313.15 K, x2 = 0.3324)?
A: 1409.5 kg/m3

Q: And the mass density (313.15 K, x2 = 0.5529)?
A: 1404.7 kg/m3

Q: What about the mass density (313.15 K, x2 = 0.774) of the same compound?
A: 1401 kg/m3

Q: What about the mass density (313.15 K, x2 = 0.8828) of the same compound?
A: 1399.5 kg/m3

Q: What about the mass density (313.15 K, x2 = 0.9517) of the same compound?
A: 1398.7 kg/m3

Q: What about the mass density (323.15 K, x2 = 0.0504) of the same compound?
A: 1408.8 kg/m3

Q: And the mass density (323.15 K, x2 = 0.112)?
A: 1406.9 kg/m3

Q: And the mass density (323.15 K, x2 = 0.2211)?
A: 1403.7 kg/m3

Q: What about the mass density (323.15 K, x2 = 0.3324) of the same compound?
A: 1400.6 kg/m3

Q: And the mass density (323.15 K, x2 = 0.5529)?
A: 1395.6 kg/m3

Q: What about the mass density (323.15 K, x2 = 0.6631) of the same compound?
A: 1393.7 kg/m3

Q: What about the mass density (323.15 K, x2 = 0.774) of the same compound?
A: 1391.9 kg/m3

Q: And the mass density (323.15 K, x2 = 0.8828)?
A: 1390.3 kg/m3

Q: What about the mass density (323.15 K, x2 = 0.9517) of the same compound?
A: 1389.4 kg/m3

Q: What about the mass density (333.15 K, x2 = 0.0504) of the same compound?
A: 1400.4 kg/m3

Q: And the mass density (333.15 K, x2 = 0.112)?
A: 1398.4 kg/m3

Q: What about the mass density (333.15 K, x2 = 0.2211) of the same compound?
A: 1395 kg/m3

Q: What about the mass density (333.15 K, x2 = 0.3324) of the same compound?
A: 1391.8 kg/m3

Q: What about the mass density (333.15 K, x2 = 0.774) of the same compound?
A: 1382.8 kg/m3

Q: And the mass density (333.15 K, x2 = 0.8828)?
A: 1381.2 kg/m3

Q: What about the mass density (333.15 K, x2 = 0.9517) of the same compound?
A: 1380.2 kg/m3

Q: What about the mass density (343.15 K, x2 = 0.112) of the same compound?
A: 1389.9 kg/m3

Q: What about the mass density (343.15 K, x2 = 0.2211) of the same compound?
A: 1386.4 kg/m3

Q: And the mass density (343.15 K, x2 = 0.3324)?
A: 1383.1 kg/m3

Q: What about the mass density (343.15 K, x2 = 0.4432) of the same compound?
A: 1379.9 kg/m3

Q: And the mass density (343.15 K, x2 = 0.5529)?
A: 1377.7 kg/m3

Q: And the mass density (343.15 K, x2 = 0.6631)?
A: 1375.7 kg/m3

Q: And the mass density (343.15 K, x2 = 0.774)?
A: 1373.7 kg/m3

Q: What about the mass density (343.15 K, x2 = 0.8828) of the same compound?
A: 1372.1 kg/m3

Q: What about the mass density (343.15 K, x2 = 0.9517) of the same compound?
A: 1371.1 kg/m3

Q: And the mass density (353.15 K, x2 = 0.0504)?
A: 1383.7 kg/m3

Q: And the mass density (353.15 K, x2 = 0.112)?
A: 1381.5 kg/m3

Q: What about the mass density (353.15 K, x2 = 0.2211) of the same compound?
A: 1377.9 kg/m3

Q: And the mass density (353.15 K, x2 = 0.3324)?
A: 1374.4 kg/m3

Q: What about the mass density (353.15 K, x2 = 0.4432) of the same compound?
A: 1371.2 kg/m3

Q: What about the mass density (353.15 K, x2 = 0.5529) of the same compound?
A: 1368.8 kg/m3

Q: And the mass density (353.15 K, x2 = 0.6631)?
A: 1366.8 kg/m3

Q: What about the mass density (353.15 K, x2 = 0.9517) of the same compound?
A: 1362 kg/m3
